Measured values published in PubChem BioAssay AID1259400 (National Center for Advancing Translational Sciences (NCATS), 2018).
The campaign covered roughly 350,000 compounds. About 2,100 (0.6%) were called active. The inconclusive results got no clear call from the source; some entries with a clear call stand among them for comparison.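 How the source made its calls: active means activity change of -60% or lower, but not beyond a set lower limit; inconclusive means change between -60% and -40%, or beyond the set limit; inactive means change above -40%.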

What follows are molecules tested against Relaxin receptor 1 (Homo sapiens) (UniProt Q9HBX9) (assay: qHTS Assay for Antagonists of the Relaxin Receptor RXFP1). Settings: HEK293-RXFP1, relaxin-stimulated cAMP HTRF, 30 min; at 57.5 µM; hits give low values.
On the % scale 0 is the no-effect control and ±100 the full control effect.

Chain of UniProt Q9HBX9 (Q9HBX9 whole entry, looked up): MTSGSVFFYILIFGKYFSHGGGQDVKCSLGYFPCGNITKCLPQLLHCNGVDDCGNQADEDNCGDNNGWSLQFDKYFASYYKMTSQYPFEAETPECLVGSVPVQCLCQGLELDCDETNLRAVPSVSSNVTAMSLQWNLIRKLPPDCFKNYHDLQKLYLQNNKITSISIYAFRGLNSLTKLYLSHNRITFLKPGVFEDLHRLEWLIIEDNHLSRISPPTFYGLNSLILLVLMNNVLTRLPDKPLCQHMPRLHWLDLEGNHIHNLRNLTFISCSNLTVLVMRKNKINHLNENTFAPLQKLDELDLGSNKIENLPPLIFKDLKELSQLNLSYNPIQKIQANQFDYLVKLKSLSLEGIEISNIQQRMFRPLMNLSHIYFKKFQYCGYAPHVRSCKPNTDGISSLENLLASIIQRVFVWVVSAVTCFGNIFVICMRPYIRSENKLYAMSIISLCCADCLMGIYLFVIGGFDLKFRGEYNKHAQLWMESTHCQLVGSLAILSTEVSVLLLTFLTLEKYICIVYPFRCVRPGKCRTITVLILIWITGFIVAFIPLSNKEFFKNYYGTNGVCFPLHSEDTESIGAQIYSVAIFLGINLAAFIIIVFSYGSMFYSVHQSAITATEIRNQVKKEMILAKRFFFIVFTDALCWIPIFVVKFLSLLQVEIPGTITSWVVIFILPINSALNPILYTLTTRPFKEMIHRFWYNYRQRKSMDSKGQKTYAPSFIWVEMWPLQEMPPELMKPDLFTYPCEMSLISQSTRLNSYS

Row | SMILES | activity change, negative = inhibition
1 | COc1cccc(NC(=O)Nc2ccc3c(c2)N(C)C(=O)c2ccccc2S3)c1 | inconclusive: -50.1%
2 | CCC(C)NCCOCCOc1ccc(Cl)c(C)c1C (stereo not given) | active: -67.7%
3 | CCOc1ccc(/C=C(\C#N)C(=O)c2c(C)[nH]c3ccccc23)cc1OC | active: -62.6%
4 | O=[N+]([O-])c1ccc(S(=O)Cc2ccccc2)c([N+](=O)[O-])c1 (stereo not given) | active: -103%
5 | Cc1ccc(CSc2nnc(SCC(=O)N/N=C/C=C/c3ccco3)s2)cc1 | inconclusive: -48.6%
6 | O=C(Nn1c(-c2ccc(Br)cc2)nc2ccccc2c1=O)c1cccnc1 | inactive: -8.9%
7 | CC(C)(C)c1ccc(O)c(N=Cc2cc3c(cc2[N+](=O)[O-])OCO3)c1 | inconclusive: -52.3%
8 | CCc1ccc(CNC(=O)C2CCCN(c3nnc(C)c4c(C)n(-c5ccccc5)nc34)C2)cc1 (stereo not given) | inconclusive: -52.5%
9 | Cc1c(N=C2C=C(Br)C(=O)C(Br)=C2)c(=O)n(-c2ccccc2)n1C | inconclusive: -44.8%
10 | COc1ccccc1NC(=O)Cn1cnc2sc(C(=O)Nc3cc(OC)c(OC)c(OC)c3)c(C)c2c1=O | inactive: 10.3%
11 | CCCC(=O)Nc1ccccc1NC(=O)c1ccc(OCC)cc1 | inactive: -5.24%
12 | Cc1cccc2sc(N(CCCN(C)C)C(=O)CCc3ccccc3)nc12 | active: -84.7%
13 | Oc1ccc(/C=N/Nc2nc(-c3ccc(Cl)cc3)cc(C(F)(F)F)n2)cc1 | active: -61.3%
14 | CCC(C)c1ccc(OCC(=O)Nc2cccc(-c3nc4ncccc4o3)c2)cc1 (stereo not given) | inconclusive: -44.4%
15 | COc1ccc(O)c(/C=N/NC(=S)NCCc2ccccc2)c1 | inconclusive: -42.2%
16 | COc1ccc(C(=O)Oc2cccc(/C=N/NC(N)=S)c2)cc1 | inconclusive: -46.7%
17 | CC1=CC(C)(C)N2C(=O)C3(C(C#N)=C(N)Oc4cc(O)ccc43)c3c(C)c(C)cc1c32 (stereo not given) | active: -73.3%
18 | CCOc1ccc2oc(C(=O)N3CCN(Cc4ccccc4)CC3)c(C)c2c1 | inconclusive: -43.6%
19 | O=C(CCNS(=O)(=O)c1ccccc1)OCc1nnc(-c2ccccc2)o1 | inactive: -5.07%
20 | O=C(Nc1cccnc1Cl)c1ccc2c(Cl)c3c(nc2c1)CCC3 | inconclusive: -50.3%
21 | COc1ccc2c(C)cc(SC3CCOC3=O)nc2c1 (stereo not given) | inconclusive: -58%
22 | COc1ccccc1CNS(=O)(=O)c1ccc2[nH]c3c(c2c1)CCCCC3 | inconclusive: -46.9%

Row | SMILES | activity change, negative = inhibition
23 | c1ccc(CCNc2nc(-c3ccccn3)nc3ccccc23)cc1 | inactive: -29.6%
24 | C=CCn1c(=S)[nH]c2cc(C(=O)N3CCN(c4ccccc4OC)CC3)ccc2c1=O | inconclusive: -48.2%
25 | CC(C)(C)OC(=O)N1CCC(c2c(C(=O)NCCN3CCC(Cc4ccccc4)CC3)cnn2-c2cccc(Cl)c2)CC1 | inconclusive: -54%
26 | CCCCNC(=O)c1ccc(Cn2c(=S)[nH]c3c([nH]c4ccc(OC)cc43)c2=O)cc1 | active: -85.1%
27 | C=CCn1c(CCC(O)COCCC)n[nH]c1=S (stereo not given) | inconclusive: -42.7%
28 | COC(=O)c1ccc(NC(=O)COc2ccc(C3C(C#N)=C(N)Oc4c3ccc3ccccc43)cc2OC)cc1 (stereo not given) | inactive: -5.82%
29 | FC(F)(F)c1nc2nc(Cl)c(Cl)nc2[nH]1 | inactive: -0.108%
30 | O=C(CSc1nc2ccccc2c(=O)n1CCCN1CCOCC1)c1c[nH]c2ccccc12 | inconclusive: -54.4%
31 | Cc1cccc(-c2noc(-c3cc(C(C)C)[nH]n3)n2)c1 | inactive: -12.3%
32 | Cc1ccc(C)c(-c2cc(C(=O)NNC(=S)NCC(C)C)c3ccccc3n2)c1 | inconclusive: -42.8%
33 | O=C(CN1CCOCC1)NNc1c2ccccc2nc2ccccc12 | active: -62.2%
34 | CCCCNC(=O)CCn1c(=S)[nH]c2cc3c(cc2c1=O)OCO3 | inconclusive: -57%
35 | CCOC(=O)c1c(-c2ccccc2)oc2ccc(O)c(CN3CCN(C)CC3)c12 | inconclusive: -48%
36 | CCOC(=O)N1CCC(NC(=O)c2c(C)nn(-c3cccc(C)c3)c2-n2cccc2)CC1 | inconclusive: -49.6%
37 | O=C(c1cnc(Cl)c(Cl)c1)N1CCC(Cc2ccccc2)CC1 | inconclusive: -46.2%
38 | CN(CC(=O)Nc1ccc(F)cc1)C(=O)COC(=O)Cc1c(F)cccc1Cl | inactive: 16%
39 | O=C(CSc1n[nH]c(-c2ccc(Br)cc2)n1)NC1CCCC1 | inconclusive: -47.8%
40 | C/C(N)=C(/C#N)C(=O)CSc1nnc(Nc2cccc(C)c2C)s1 | inconclusive: -41.2%
41 | COCCn1c(=NC(=O)c2cc(Cl)sc2Cl)sc2cc(S(N)(=O)=O)ccc21 | inconclusive: -40%
42 | Oc1[nH]c2ccc(Br)cc2c1N=NC(=S)N1CCOCC1 | inconclusive: -50.6%
43 | CC(C)OC(=O)C(C)(C)Oc1ccc(C(=O)c2ccc(Cl)cc2)cc1 | inconclusive: -49.4%
44 | O=C(CN1C(=O)CCC1=O)Nc1nc(-c2ccc(Oc3ccccc3)cc2)cs1 | active: -69.6%

Row | SMILES | activity change, negative = inhibition
45 | Cc1cc(C)n(-c2nc(Nc3ccccc3C(F)(F)F)nc(-n3nc(C)cc3C)n2)n1 | inconclusive: -56.5%
46 | Cc1ncc(CO)c2c1Oc1nc(-c3ccccc3F)nc(SCC(=O)N(C)c3ccccc3)c1C2 | active: -91%
47 | COc1ccccc1C(O)(c1ccccc1)c1ccccc1OC | inconclusive: -40.5%
48 | Cc1ccc(Nc2nc3nonc3nc2Nc2cccc(C(F)(F)F)c2)cc1Cl | inconclusive: -54.8%
49 | O=c1cc(-c2ccccc2)[nH]n1-c1nc2ccccc2[nH]1 | active: -75.6%
50 | COc1ccc(S(=O)(=O)NCc2ccc3c(c2)CCN3C(=O)c2ccccc2)cc1OC | inactive: 10.9%
51 | CCOc1ccc(Nc2oc(-c3ccc(COc4ccc(OC)cc4)o3)nc2C#N)cc1 | inactive: -9.7%
52 | COCc1ccc(CN2CCC(C(=O)Nc3cccc(-c4cscn4)c3)CC2)o1 | inconclusive: -41.9%
53 | COc1ccc(CC2(CO)CCN(CC3=Cc4cc(Cl)ccc4OC3)CC2)cc1 | inconclusive: -56.4%
54 | CCOc1cc(/C=C(\C#N)C(=O)Nc2cccc(C(=O)O)c2)cc(Br)c1OC(=O)c1ccc(OC)cc1 | active: -89.1%
55 | COc1ccc(CCNC(=O)C23CCC(C)(C(=O)C2Br)C3(C)C)cc1OC (stereo not given) | inconclusive: -57.7%
56 | CC(=O)N1CCCc2cc(S(=O)(=O)N3CCCC(C(=O)N4CCN(c5cccc(Cl)c5)CC4)C3)ccc21 (stereo not given) | inconclusive: -45.8%
57 | CC(C)(C#CCN1CCCCC1)OCCOC(c1ccccc1)c1ccccc1 | inconclusive: -44.2%
58 | COc1ccc(CN(C)CC(O)COC(c2ccc(OC)cc2)c2ccc(OC)cc2)cc1 (stereo not given) | inconclusive: -50.1%
59 | CC(C)CN(C(=O)CSc1ncnc2ccccc12)C1CCS(=O)(=O)C1 (stereo not given) | inactive: 3.13%
60 | CCOC(=O)c1ccc(CC(=O)c2oc3cc(O)ccc3c2C)o1 | inactive: -12.3%
61 | Cc1ccc(-n2nc3c(=O)n(CCCC(=O)NC4CCC(C)CC4)nc(C)c3c2C)cc1 (stereo not given) | inconclusive: -49.1%
62 | CCOc1ccc(S(=O)(=O)Nc2ccccc2SC)c2cccnc12 | inactive: 6.66%
63 | CCCOCc1ccc(O)c2ncccc12 | inconclusive: -42.3%
64 | O=C(CCCCCNc1nc(=S)[nH]c2ccccc12)NCCc1ccccc1 | inconclusive: -54.9%
65 | CC1CCCN(CCCNC(=O)c2cc(Sc3ccc(F)cc3)nc3ccccc23)C1 (stereo not given) | inactive: -3.24%
66 | O=c1c2ccccc2nc(N/N=C/c2c(O)ccc3ccccc23)n1O | inconclusive: -43%

Row | SMILES | activity change, negative = inhibition
67 | CC1Sc2ccc(C(=O)OCc3ccccc3Cl)cc2NC1=O (stereo not given) | inconclusive: -46.6%
68 | Cc1cccc(Cn2c(-c3ccccc3)nc3ccccc32)c1 | inconclusive: -44.8%
69 | Cc1ccc(S(=O)(=O)/N=c2\ccc(Cl)cn2C(F)F)cc1 | inactive: -0.495%
70 | CC(=O)c1cccc(NC(=O)c2sc(-n3nc(C)c(Cc4ccccc4)c3C)nc2C)c1 | inactive: 1.06%
71 | O=C(O)c1ccc(CNCc2ccccc2Cl)cc1 | inactive: -4.09%
72 | CS(=O)(=O)N(Cc1ccc(C(=O)NC2CCCCC2O)cc1)c1ccccc1 (stereo not given) | inactive: 8.69%
73 | C[C@@H](O[C@H]1OCCN(Cc2n[nH]c(=O)[nH]2)[C@H]1c1ccc(F)cc1)c1cc(C(F)(F)F)cc(C(F)(F)F)c1 | active: -60.1%
74 | COc1cccc(CN(C)C(c2ccccc2)c2ccccc2)c1OC | inconclusive: -43.3%
75 | CCc1cc(=O)oc2cc(C)c(CN3CCCC(C)C3)c(O)c12 (stereo not given) | inactive: 5.4%
76 | CC(C)(C)c1ccc(C(=O)CSc2ncn[nH]2)cc1 | inconclusive: -59.6%
77 | COCCCn1c(=O)/c(=C/c2ccccc2OC(F)F)s/c1=C(\C#N)C(=O)NCCOC | inconclusive: -42.7%
78 | CC(=O)Nc1ccc(NC(=O)c2nc(S(=O)(=O)Cc3ccc(F)cc3)ncc2Cl)cc1 | inconclusive: -54.5%
79 | Cc1nn(-c2nc(-c3ccccc3)cc(C(F)(F)F)n2)c(C)c1Cl | inconclusive: -44.5%
80 | Nc1nnnn1CC(=O)N/N=C/c1ccc(-c2cccc(Cl)c2)o1 | inconclusive: -40%
81 | Cc1cccc(-n2c(C)cc(C(=O)C(=O)Nc3ccccc3F)c2C)c1C | inconclusive: -51.7%
82 | CCOc1cccc(C(=O)Nc2ccc(-c3nc4ncccc4o3)cc2C)c1 | inconclusive: -46.1%
83 | COc1ccccc1/C=C/C(=O)c1c2c(c(C)[nH]c1=O)CCCC2 | inactive: 1.28%
84 | Cc1cc(C(=O)N/N=C/c2ccc([N+](=O)[O-])cc2)c2ccccc2n1 | inactive: -3.56%
85 | COc1cc(C(=O)O)nc(OC)n1 | inconclusive: -40.5%
